The supplement of paper PMC4967469

Experiments:
Test in all cases: Viability of human cancer cell lines after 72 h of drug (GDSC screen)
Doxorubicin = compound: COc1cccc2c1C(=O)c1c(O)c3c(c(O)c1C2=O)C[C@@](O)(C(=O)CO)C[C@@H]3O[C@H]1C[C@H](N)[C@H](O)[C@H](C)O1 [Doxorubicin]; settings: top dose 1.024 µM
Method: (§1)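 Human cancer cell lines in 384-well plates, medium with 10% serum, drug for 72 h over a 256-fold dose range (nine 2-fold or five 4-fold steps up to the top dose). Adherent lines were fixed and stained with the nucleic acid dye Syto60, suspension lines read with resazurin; signal relative to control wells, capped at 0 and 100%. One two-parameter sigmoid per drug and line, fitted in a mixed model over all curves with the slope shared within a line.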

OSI-027 = compound: COc1cccc2cc(-c3nc([C@H]4CC[C@H](C(=O)O)CC4)n4ncnc(N)c34)[nH]c12 [OSI-027]; settings: top dose 20 µM
Method: as §1

VX-11e = compound: Cc1cnc(Nc2ccc(F)cc2Cl)nc1-c1c[nH]c(C(=O)N[C@H](CO)c2cccc(Cl)c2)c1 [VX-11e]; settings: top dose 5.12 µM; top dose inferred
Method: as §1

Dimethyloxalylglycine = compound: COC(=O)CNC(=O)C(=O)OC [Dimethyloxalylglycine]; settings: top dose 4000 µM; top dose inferred
Method: as §1

CCT018159 = compound: CCc1cc(-c2n[nH]c(C)c2-c2ccc3c(c2)OCCO3)c(O)cc1O [CCT018159]; settings: top dose 10 µM; top dose inferred
Method: as §1

BIX02189 = compound: CN(C)Cc1cccc(N=C(c2ccccc2)c2c(O)[nH]c3cc(C(=O)N(C)C)ccc23)c1 [BIX02189]; settings: top dose 20 µM; top dose inferred
Method: as §1

TG101348 = compound: Cc1cnc(Nc2ccc(OCCN3CCCC3)cc2)nc1Nc1cccc(S(=O)(=O)NC(C)(C)C)c1 [TG101348]; settings: top dose 10.24 µM
Method: as §1

17-AAG = compound: C=CCNC1=C2C[C@@H](C)C[C@H](OC)[C@H](O)[C@@H](C)/C=C(\C)[C@H](OC(N)=O)[C@@H](OC)/C=C\C=C(/C)C(=O)NC(=CC1=O)C2=O [17-AAG]; settings: top dose 1 µM
Method: as §1

Vismodegib = compound: CS(=O)(=O)c1ccc(C(=O)Nc2ccc(Cl)c(-c3ccccn3)c2)c(Cl)c1 [Vismodegib]; settings: top dose 10 µM; top dose inferred
Method: as §1

UNC1215 = compound: O=C(c1ccc(C(=O)N2CCC(N3CCCC3)CC2)c(Nc2ccccc2)c1)N1CCC(N2CCCC2)CC1 [UNC1215]; settings: top dose 1 µM; top dose inferred
Method: as §1

Cell Line	AUC (Doxorubicin)	IC50 (Doxorubicin) [µM]	AUC (OSI-027)	IC50 (OSI-027) [µM]	AUC (VX-11e)	IC50 (VX-11e) [µM]	AUC (Dimethyloxalylglycine)	IC50 (Dimethyloxalylglycine) [µM]	AUC (CCT018159)	IC50 (CCT018159) [µM]	AUC (BIX02189)	IC50 (BIX02189) [µM]	AUC (TG101348)	IC50 (TG101348) [µM]	AUC (17-AAG)	IC50 (17-AAG) [µM]	AUC (Vismodegib)	IC50 (Vismodegib) [µM]	AUC (UNC1215)	IC50 (UNC1215) [µM]
SK-HEP-1 (liver, adherent)	0.359	0.0268	0.984	> 20	0.981	> 5.12	0.321	82.2	0.915	> 10	0.938	> 20	0.989	> 10.2	0.92	> 1	0.989	> 10	0.988	> 1
HA7-RCC (kidney, adherent)	0.763	0.404	0.703	4.98	0.957	> 5.12	0.884	> 4000	0.977	> 10	0.866	> 20	0.856	9.64	0.749	0.353	0.975	> 10	0.983	> 1
EGI-1 (biliary tract, adherent)	0.745	0.408	0.468	0.999	0.85	> 5.12	0.531	312	0.898	> 10	0.97	> 20	0.925	> 10.2	0.951	> 1	0.968	> 10	0.979	> 1
H3255 (lung adenocarcinoma, adherent)	0.563	0.0985	0.767	8.85	0.973	> 5.12	0.857	> 4000	0.935	> 10	0.973	> 20	0.944	> 10.2	0.648	0.174	0.98	> 10	0.981	> 1
NCI-H2227 (small cell lung carcinoma, semi-adherent)	0.931	> 1.02	0.531	1.54	0.986	> 5.12	0.808	2410	0.957	> 10	0.981	> 20	0.667	1.99	0.882	> 1	0.986	> 10	0.975	> 1
G-361 (melanoma, adherent)	0.373	0.0291	0.954	> 20	0.845	3.46	0.739	1160	0.936	> 10	0.946	> 20	0.988	> 10.2	0.746	0.307	0.988	> 10	0.987	> 1
ST486 (Burkitt lymphoma, suspension)	0.272	0.0157	0.275	0.314	0.836	2.85	0.319	83.6	0.951	> 10	0.634	2.79	0.63	1.39	0.978	> 1	0.971	> 10	0.987	> 1
LU-134-A (small cell lung carcinoma, suspension)	0.532	0.0786	0.804	10.8	0.986	> 5.12	0.874	> 4000	0.907	> 10	0.987	> 20	0.825	6.7	0.636	0.152	0.975	> 10	0.976	> 1
NCI-H2405 (lung adenocarcinoma, adherent)	0.693	0.237	0.734	6.3	0.887	> 5.12	0.504	257	0.873	> 10	0.957	> 20	0.935	> 10.2	0.76	0.389	0.986	> 10	0.902	> 1
CESS (acute myeloid leukaemia, suspension)	0.418	0.0396	0.095	< 0.0781	0.853	3.14	0.268	61.5	0.951	> 10	0.837	10.8	0.525	0.742	0.936	> 1	0.988	> 10	0.98	> 1
SBC-5 (small cell lung carcinoma, adherent)	0.392	0.0342	0.976	> 20	0.993	> 5.12	0.733	990	0.91	9.49	0.993	> 20	0.981	> 10.2	0.682	0.181	0.993	> 10	0.99	> 1
Calu-6 (lung adenocarcinoma, adherent)	0.723	0.306	0.604	2.53	0.529	0.388	0.672	817	0.878	> 10	0.915	> 20	0.83	7.73	0.965	> 1	0.964	> 10	0.981	> 1
Caov-4 (ovary, adherent)	0.683	0.266	0.763	10.6	0.853	> 5.12	0.915	> 4000	0.964	> 10	0.93	> 20	0.845	> 10.2	0.979	> 1	0.98	> 10	0.971	> 1

Lines with a small IC50 respond at low doses; a limit (>, <) means that the fit lies beyond the doses tested. The AUC spans the tested range (256-fold, ending at the top dose) of the same fit: 1 means no effect, lower means more sensitive. For some assays here: An inferred top dose is not printed in the source and was worked back from the curve model.
